Measurements published in the supplement of paper PMC7238544.
Structures can show the parent of a compound that is named as a salt. ± gives the standard deviation of the averaged measurements. Some of the results follow.

System: hAMSC donor 2
Test: transfection efficiency (EGFP+ cells / Hoechst count) fold change vs vehicle control (ratio); hAMSC are human adipose-derived mesenchymal stem cells given an EGFP-luciferase plasmid by lipofection; higher = enhanced transfection
Conditions: priming compound concentration 100 µM
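Note: compounds added 30 min before Lipofectamine 3000 lipoplex transfection, triplicate means relative to DMSO vehicle wells on the same plate, luciferase RLU normalized to BCA total protein.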

| SMILES | transfection efficiency |
| --- | --- |
| CC(C)(C)NCC(O)c1cc(O)cc(O)c1 (centres undefined) [Terbutaline sulfate] | 0.885 ± 0.12 |
| CC1=C(/C=C/C(C)=C/C=C/C(C)=C\C(=O)O)C(C)(C)CCC1 [Isotretinoin] | 1.14 ± 0.36 |
| CC[C@H](C)C(=O)O[C@H]1C[C@@H](C)C=C2C=C[C@H](C)[C@H](CC[C@@H]3C[C@@H](O)CC(=O)O3)[C@H]21 [Lovastatin] | 1.05 ± 0.26 |
| CN1CCC(=C2c3ccccc3C=Cc3ccccc32)CC1 [Cyproheptadine hydrochloride] | 0.845 ± 0.42 |
| C=CCc1ccc(O)c(-c2ccc(O)c(CC=C)c2)c1 [Honokiol] | 0.0305 ± 0.053 |
| CC(C)Oc1ccc2c(=O)c(-c3ccccc3)coc2c1 [Ipriflavone] | 1.77 ± 0.13 |
| CC[C@@]1(O)C(=O)OCc2c1cc1n(c2=O)Cc2cc3c(CN(C)C)c(O)ccc3nc2-1 [Topotecan hydrochloride] | 1.03 ± 0.1 |
| CN(C)CCCSc1ccccc1NC(=O)/C=C/c1ccccc1 [Cinanserin] | 0.624 ± 0.094 |
| CC(=O)OCC(CCn1cnc2cnc(N)nc21)COC(C)=O [Famciclovir] | 0.931 ± 0.2 |
| C[C@](N)(Cc1ccc(O)cc1)C(=O)O [alpha-Methyl-L-tyrosine] | 0.911 ± 0.044 |
| C=CC1=C(C(=O)O)N2C(=O)[C@@H](NC(=O)/C(=N\O)c3csc(N)n3)[C@H]2SC1 [Cefdinir] | 0.769 ± 0.12 |
| COc1ccc(CC(C)NCC(O)c2ccc(O)c(NC=O)c2)cc1 (centres undefined) [Formoterol fumarate dihydrate] | 0.836 ± 0.14 |
| Cc1nc(=O)c2cc(CN(C)c3ccc(C(=O)N[C@@H](CCC(=O)O)C(=O)O)s3)ccc2[nH]1 [Raltitrexed] | 0.835 ± 0.11 |
| CC(C)[N+](C)(CCOC(=O)C1c2ccccc2Oc2ccccc21)C(C)C [Propantheline bromide] | 0.99 ± 0.13 |
| COCCOC(=O)C1=C(C)NC(C)=C(C(=O)OC(C)C)C1c1cccc([N+](=O)[O-])c1 (centres undefined) [Nimodipine] | 1.07 ± 0.2 |
| CN(C)CCOC(c1ccc(Cl)cc1)c1ccccn1 (centres undefined) [Carbinoxamine maleate] | 1.05 ± 0.039 |
| CC(C)c1ccc2c(c1)c(SC(C)(C)C)c(CC(C)(C)C(=O)O)n2Cc1ccc(Cl)cc1 | 0.349 ± 0.096 |
| CCN1CCN(c2cc3c(cc2F)c(=O)c(C(=O)O)cn3C2CC2)CC1 [Enrofloxacin] | 0.96 ± 0.098 |
| CN[C@H]1CC[C@@H](c2ccc(Cl)c(Cl)c2)c2ccccc21 [Sertraline hydrochloride] | 0.0886 ± 0.0089 |
| CC(=O)S[C@@H]1CC2=CC(=O)CC[C@]2(C)[C@H]2CC[C@@]3(C)[C@@H](CC[C@@]34CCC(=O)O4)[C@H]12 [Spironolactone] | 0.546 ± 0.064 |

| SMILES | transfection efficiency |
| --- | --- |
| O=C(CCCN1CCC(O)(c2ccc(Cl)cc2)CC1)c1ccc(F)cc1 [Haloperidol hydrochloride] | 0.667 ± 0.042 |
| CCCCN1CCCC1CNC(=O)c1cc(C#N)c2ccccc2c1OC (centres undefined) [Nafadotride] | 1.18 ± 0.23 |
| O=C(CCNNC(=O)c1ccncc1)NCc1ccccc1 [Nialamide] | 1.12 ± 0.065 |
| NS(=O)(=O)c1cc(C(=O)O)c(NCc2ccco2)cc1Cl [Furosemide] | 1.21 ± 0.21 |
| CCN(CC)CC(=O)Nc1c(C)cccc1C [Lidocaine] | 0.839 ± 0.15 |
| O=C1CC2(CCCC2)CC(=O)N1CCCCN1CCN(c2ncccn2)CC1 [Buspirone hydrochloride] | 0.933 ± 0.14 |
| Cc1cccc(CN2CCN(C(c3ccccc3)c3ccc(Cl)cc3)CC2)c1 (centres undefined) [Meclizine hydrochloride] | 0.381 ± 0.11 |
| C[C@@](Cc1ccc(O)c(O)c1)(NN)C(=O)O [Carbidopa] | 0.981 ± 0.2 |
| C#C[C@]1(O)CC[C@H]2[C@@H]3CCc4cc(OC)ccc4[C@H]3CC[C@@]21C [Mestranol] | 1.29 ± 0.19 |
| CC1(C)S[C@@H]2[C@H](NC(=O)Cc3ccccc3)C(=O)N2[C@H]1C(=O)O [Penicillin G potassium] | 1.3 ± 0.2 |
| O=C1[C@H](CC[C@H](O)c2ccc(F)cc2)[C@@H](c2ccc(O)cc2)N1c1ccc(F)cc1 [Ezetimibe] | 1.43 ± 0.33 |
| Nc1nc2c(ncn2COC(CO)CO)c(=O)[nH]1 [Ganciclovir] | 1.02 ± 0.27 |
| Nc1c2c(nc3ccccc13)CCCC2 [Tacrine hydrochloride] | 0.926 ± 0.12 |
| CCN1CCC[C@H]1CNC(=O)c1cc(S(N)(=O)=O)ccc1OC [Levosulpiride] | 1.75 ± 0.34 |
| Cn1ccnc1S [Methimazole] | 1.46 ± 0.23 |
| COc1cc([C@@H]2c3cc4c(cc3[C@@H](O[C@@H]3O[C@@H]5CO[C@@H](C)O[C@H]5[C@H](O)[C@H]3O)[C@H]3COC(=O)[C@H]23)OCO4)cc(OC)c1O [Etoposide] | 0.758 ± 0.36 |
| OCc1cccnc1 [3-Pyridinemethanol] | 1.01 ± 0.12 |
| C[C@H]1C[C@@H]2[C@H]([C@@H](O)C[C@@]3(C)[C@H]2CC[C@]3(O)C(=O)CO)[C@@]2(C)C=CC(=O)C=C12 [Methylprednisolone] | 1.49 ± 0.27 |
| COC(=O)[C@H](c1ccccc1Cl)N1CCc2sccc2C1 [Clopidogrel] | 0.692 ± 0.017 |
